Data from PubChem BioAssay AID686979 (National Center for Advancing Translational Sciences (NCATS), 2013).
The whole screen tested about 420,000 compounds, of which about 50,000 (12%) were called active. This list was built around the results that the source calls inconclusive (neither active nor inactive); the mix of calls is not that of the screen. Calls come from the whole dose curve; as a rule, active = well fitted inhibition curve with a large enough effect; inconclusive = small, poorly fitted or top-dose-only effect; inactive = flat fitted curve, though single readings scatter. No potency is given beside an inconclusive call; the fits are too rough.
Potency is the fitted concentration of half-maximal effect; tags give direction and shape of the fitted curve.

Assay: qHTS for Inhibitors of human tyrosyl-DNA phosphodiesterase 1 (TDP1): qHTS in cells in presence of CPT; note: nearly all actives have a fitted effect of over 55% in size
Conditions: chicken DT40 Tdp1-/-;hTDP1 cells + 20 nM CPT, ATP luminescence, 48 h; series mostly up to 46.2 µM
Method in brief: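 Cell growth measured by CellTiter-Glo luminescence after a minimum 48 h, 37 C compound exposure with 20 nM CPT in Tdp1-knockout DT40 cells stably expressing hTDP1, seeded 400/well; qHTS titration format.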
With `COc1ccccc1OC(C)C(=O)Nc1cccc(-c2nc3ccccc3o2)c1` (centres undefined) the Potency was inconclusive [inhibitor, single point]. In the case of `O=C(N/N=C\c1cccc([N+](=O)[O-])c1O)C1COc2ccccc2O1` (centres undefined), the Potency is reported as active: 5.17 µM. With `COc1ccccc1CC(NC(C)=O)C(=O)NC1CCN(C(=O)Nc2ccc(F)cc2)CC1` (centres undefined) the Potency was “inactive”. With `COc1ccc(C(=O)Nc2cccc(-c3cnc4ccccc4n3)c2)cc1` the Potency was inconclusive [inhibitor, partial curve]. In the case of `COc1ccc(OC)c(Nc2nc3ccccc3n3cnnc23)c1`, the Potency is reported as active: 4.11 µM. For `CCc1ccc(NS(=O)(=O)c2ccc3[nH]cc(C(=O)NCCCOC(C)C)c(=O)c3c2)cc1`, the Potency was inconclusive [inhibitor, single point]. With `COc1ccccc1CNC(=O)CSC1=Nc2ccccc2N=C(c2ccc(F)cc2)C1` the Potency was active: 25.9 µM. With `Cc1ccnc(NS(=O)(=O)c2ccc(NC(=O)Cc3ccc(Br)cc3)cc2)n1` the Potency was “inactive”. For `Cc1ccc(-c2nn(-c3ccccc3)cc2NC(=O)CCl)cc1`, the Potency was active: 3.26 µM. In the case of `CCc1ccc(N2CC(C(=O)Nc3ccc(C)c(S(=O)(=O)N4CCOCC4)c3)CC2=O)cc1` (centres undefined), the Potency is reported as inconclusive [inhibitor, partial curve, poor fit]. With `CC1(Cc2ccc(Cl)c(Cl)c2)C(=O)Nc2ccc(S(=O)(=O)NC3CCCCC3)cc21` (centres undefined) the Potency was inconclusive [inhibitor, single point]. For `COCCNC(=S)N(CCc1c(C)[nH]c2ccc(Cl)cc12)Cc1cccs1`, the Potency was inconclusive [inhibitor, single point]. With `CCCSc1nc2c([nH]c3ccccc32)c(=O)n1C` the Potency was inconclusive [inhibitor, partial curve]. In the case of `CN1C2CCC1/C(=C\c1ccccc1F)C(=O)/C2=C/c1ccccc1F`, the Potency is reported as inconclusive [inhibitor, single point]. For `O=[N+]([O-])c1cccc(/C=N/Nc2cc(Cl)nc(-c3ccccc3)n2)c1`, the Potency was inconclusive [inhibitor, single point]. With `O=C(Cn1ncc2c([nH]c3ccccc32)c1=O)Nc1ccc(CN2CCCCC2)cc1` the Potency was inconclusive [inhibitor, single point]. With `COc1ccccc1CN1CCN(Cc2nc(-c3ccc(C)cc3)oc2C)CC1` the Potency was active: 20.6 µM. For `COc1cccc(N2CCN(S(=O)(=O)c3ccc4ccccc4c3)CC2)c1`, the Potency was inconclusive [inhibitor, partial curve]. For `CC1=CC(=C(C#N)C#N)C=C(C)N1CCC(C)C`, the Potency was inconclusive [inhibitor, single point].
